In all, about 110,000 compounds were measured (“z-score”: median about -0.1, highest 2% from about 2 on). Some of the results follow.
molecular target: Metabotropic glutamate receptor 8 (Rattus norvegicus) (UniProt P70579); test: mGluR8 Gi/Go-coupled signaling modulation – cell-based, rat, thallium flux, HTS, primary screen (AID 488969); settings: HEK293 rat mGluR8, GIRK (G protein-gated inwardly rectifying potassium channel) thallium flux, FluoZin2; at 10 µM; stronger effect = higher value; submaximal glutamate (EC20) added with thallium
Chain of UniProt P70579 (P70579 whole entry, looked up): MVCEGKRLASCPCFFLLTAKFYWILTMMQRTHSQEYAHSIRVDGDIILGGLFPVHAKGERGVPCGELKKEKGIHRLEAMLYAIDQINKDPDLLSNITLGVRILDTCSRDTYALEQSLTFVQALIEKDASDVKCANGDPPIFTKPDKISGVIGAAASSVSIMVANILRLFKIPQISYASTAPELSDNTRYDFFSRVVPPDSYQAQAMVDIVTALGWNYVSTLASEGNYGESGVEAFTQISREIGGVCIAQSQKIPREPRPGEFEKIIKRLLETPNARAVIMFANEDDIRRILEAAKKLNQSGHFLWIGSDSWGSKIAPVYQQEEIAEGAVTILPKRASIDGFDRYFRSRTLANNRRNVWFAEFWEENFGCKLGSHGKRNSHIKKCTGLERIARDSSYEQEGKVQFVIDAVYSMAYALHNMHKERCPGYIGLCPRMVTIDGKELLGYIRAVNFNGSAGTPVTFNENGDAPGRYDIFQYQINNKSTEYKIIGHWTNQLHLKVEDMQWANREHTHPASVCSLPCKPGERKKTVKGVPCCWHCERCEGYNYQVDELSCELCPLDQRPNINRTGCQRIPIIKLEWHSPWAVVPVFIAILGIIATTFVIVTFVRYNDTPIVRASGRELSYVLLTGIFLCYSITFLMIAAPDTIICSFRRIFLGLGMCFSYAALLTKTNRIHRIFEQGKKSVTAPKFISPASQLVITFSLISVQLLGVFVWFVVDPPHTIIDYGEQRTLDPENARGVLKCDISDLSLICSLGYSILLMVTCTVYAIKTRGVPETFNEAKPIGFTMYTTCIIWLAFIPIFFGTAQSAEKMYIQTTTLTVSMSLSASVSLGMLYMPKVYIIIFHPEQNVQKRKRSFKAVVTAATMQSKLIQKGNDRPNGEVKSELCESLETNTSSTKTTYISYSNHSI

Structure (SMILES)	z-score
CC(C)[C@H](NC(=O)c1ccc(F)cc1)C(=O)OCC(=O)NC(=O)c1cccn1C	1.24
Cc1ccc(NC(=O)c2cc([N+](=O)[O-])ccc2NCc2cccnc2)cc1Cl	0.144
CCCCCCn1cnc2c(c1=O)c1nc3ccccc3nc1n2Cc1cccs1	-1.43
Cc1nnc2n1N=CC=C(c1ccccc1)S2	0.236
Cc1nc(C)c(C(=O)Nc2ccccc2-c2ccccc2)o1	-0.0653
COc1ccc(N(CC(=O)NCc2cccnc2)S(=O)(=O)c2c(C)nn(C)c2C)cc1	0.022
CS(=O)(=O)N1N=C(c2ccco2)CC1c1ccccc1 (centres undefined)	-0.108
CC(C)NS(=O)(=O)c1ccc(NC(=O)C2CC3C=CC2C3)cc1 (centres undefined)	-0.0807
O=c1oc2ccccc2c(N2CCCC2)c1CN1CCCC1	-0.557
O=C(NCC1CCN(c2ccc(S(=O)(=O)N3CCOCC3)cc2)CC1)c1cccc(Cl)c1	0.0384
CCN(CC)S(=O)(=O)c1ccc(NC(=O)Cn2cnc3ccccc3c2=O)cc1	-0.403
COc1cc(NC(=O)CCCC(=O)OCC(F)(F)C(F)F)nc(OC)n1	-1.96
Cc1c(/C=N/NC(=O)c2sc3ccccc3c2Cl)cnn1C	-0.419
CC(C)(C)Nc1cccccc1=O	0.435
CC(O)(CS(=O)(=O)Cc1ccccc1Cl)C(=O)Nc1cccc(C(F)(F)F)c1 (centres undefined)	0.0796
O=C(CSc1ncnc2c1nnn2-c1ccc(F)cc1)N1CCN(c2ccccc2)CC1	0.315
CC1CC(C)(C)NCc2ccccc21 (centres undefined)	-0.185
Cc1cccc(CN2CCNC2=O)c1	0.122
Cc1ccc(C(=O)NCCc2nnc3ccc(SCC(=O)Nc4c(C)cc(C)cc4C)nn23)cc1	-0.547
Cc1cc(NC(=O)CS(=O)(=O)c2cn(Cc3ccc(F)cc3)c3ccccc23)no1	-0.23
CN(C)c1nc(N)nc(CSc2nnnn2-c2ccc(C(=O)O)cc2)n1	0.156
CCC(=O)Nc1cc(C(=O)OCC(=O)c2ccc(Cl)cc2Cl)ccc1C	0.419

Structure (SMILES)	z-score
COc1ccc(/C=C(/NC(=O)c2ccccc2)C(=O)N/N=C/c2cccs2)cc1OC	0.206
Cc1cc(NC(=O)C2C3C(=O)N(Cc4ccc(Cl)cc4)C(C(=O)NC4CCCCC4)C34C=CC2(C)O4)no1 (centres undefined)	-0.174
Cc1ccc(CSc2nnc(-c3ccc4c(c3)OCO4)o2)cc1	-0.118
O=c1cc(CSc2nc(NCc3ccccc3)c3ccccc3n2)nc2ccc(Cl)cn12	-0.232
O=S(=O)(N1CCCCCC1)N1CCN(S(=O)(=O)N2CCCCC2)CC1	-0.247
CC1CCCCN1CCNc1nc(=S)[nH]c2ccccc12 (centres undefined)	-0.105
Cc1ccc(-c2nc3ncccc3o2)cc1NC(=O)Cc1ccc(Cl)cc1	0.497
CC(C)(C)C(=O)N=C1SC2CS(=O)(=O)CC2N1c1ccc2c(c1)OCO2 (centres undefined)	-0.0529
O=C(O)CSc1nnc(-c2ccncc2)n1Cc1ccccc1	-0.0551
CCCCC(=O)Nc1c(C)cc(C)cc1Cl	-0.441
COc1cccc(NC2C=CS(=O)(=O)C2)c1 (centres undefined)	-0.155
COc1ccc(N(CC(=O)Nc2ccccc2C(=O)N2CCOCC2)S(=O)(=O)c2ccc(F)cc2)cc1	-0.218
O=C1NC(=O)C2(CCC(C(=O)O)C2)N1 (centres undefined)	0.268
CCn1c2ccccc2c2nnc(SCC(=O)NC3CCS(=O)(=O)C3)nc21 (centres undefined)	-0.103
Cc1ccc(N=C(NOCc2ccc(Cl)cc2Cl)c2nonc2N)c(C)c1	-0.408
CCOC(=O)c1cc(NC(=O)c2ccoc2C)cc(C(=O)OCC)c1	-2.39
O=C(Nc1ccc(N2CCCCC2)c(Cl)c1)c1cccnc1	-0.0422
O=C(/C=C/c1cccs1)Nc1ccc(N2CCOCC2)c(S(=O)(=O)Nc2ccccc2Cl)c1	-0.602
CC(C)n1cc(/C=C2\NC(=O)N(c3cccc(Cl)c3)C2=O)c2ccccc21	-0.0208
CC(C)CCOC(=O)C1C(c2ccccc2)C(C(=O)O)C1c1ccccc1 (centres undefined)	0.224
O=C(CSc1nc2ccccc2n1CC(=O)N1CCOCC1)N1CCCC1	0.588
O=C(CCSc1ccccc1)Nc1ncccn1	1.14

Structure (SMILES)	z-score
CC(C)(C)N1C(=O)Cc2c1nc(N)c1c(N)nc(N3CCCCC3CO)c(C#N)c21 (centres undefined)	-1.02
Cc1cc2cc(CN(Cc3cccs3)C(=S)NCC3CCCO3)c(=O)[nH]c2cc1C (centres undefined)	-0.14
O=C(c1cc(-c2ccco2)on1)N1CCN(C(c2ccccc2)c2ccccc2)CC1	-0.155
Cn1c(CCN2CCCCC2)nc2cc([N+](=O)[O-])ccc21	-0.206
Cn1c2ccccc2n2c(=O)c(=O)n(CC(=O)c3ccc(F)cc3)nc12	-0.37
CC1Cc2ccccc2N1C(=O)COC(=O)C1(c2ccccc2F)CCCC1 (centres undefined)	-0.536
Nc1ccc(Cc2nc3c(ccc4ccccc43)[nH]2)cc1	-0.049
C=CCNc1nc(C2(C)CC3(CC(C)(C)OC3=O)C(=O)O2)cs1 (centres undefined)	-0.181
Cc1ccc(OCCCCn2cnc3ccccc32)c(C)c1	-0.0373
CC(/C=N/NC(=O)c1cc(-c2ccc(C)s2)[nH]n1)=C\c1ccccc1	-0.801
Oc1ccc(NCc2ccccc2OCc2ccccc2F)cc1	-0.322
Cc1ccc2nc(-c3sc4nc(C)ccc4c3N)[nH]c2c1	-2.05
COc1cccc(OC)c1C(=O)Nc1ccccc1C(=O)N1CCOCC1	-0.216
COc1cc2nc(C3CCC3)n(NC(=O)C3CCC(OC)CC3)c(=O)c2cc1OC (centres undefined)	1.79
CC(=O)Nc1ccccc1NC(=O)CN(C)S(=O)(=O)c1ccc(C)cc1	-0.197
Cc1cc(C(F)(F)F)nn1Cc1ccc(C(=O)NCc2ccco2)o1	-0.563
O=C(NCCc1ccncc1)Nc1ccc(Cl)cc1	0.11
O=C(CC(Cc1ccccc1)C(=O)O)NCCc1ccc2c(c1)OCO2 (centres undefined)	-0.12
CCOC(=O)C1CCCCN1Cc1cccc(F)c1 (centres undefined)	-0.455
COCCCNC(=O)c1ccc(-n2nc(C(F)(F)F)cc2-c2cccs2)cc1	-0.291
CC(=O)Nc1ccc(S(=O)(=O)NCCSCc2cccc(Cl)c2)cc1	-0.049
O=C(CCN1C(=O)c2ccccc2C1=O)Nc1ccc2c(c1)OCCO2	0.141

Structure (SMILES)	z-score
COC(=O)c1ccccc1NC(=O)c1ccc(-c2ccc(Br)cc2)o1	-0.235
COc1ccc(-c2c3c(=O)n(C)c(=O)n(C)c3cn2C2CCCCC2)cc1	-0.528
Cc1ccc(OCCn2cc(Br)c(=O)[nH]c2=O)cc1	-0.137
O=C(CN1C(=O)CCC1=O)Nc1ccc2c3c(cccc13)CC2	-0.268
O=C(CSc1nnnn1C1CCCCC1)N1CCc2ccccc21	0.136
Cc1ccc(S(=O)(=O)N2CCN(C(=O)CC3CCCC3)CC2)cc1	0.49
O=C(COc1ccc(S(=O)(=O)NC2CCCCC2)cc1Cl)NCc1ccc2c(c1)OCO2	-0.138
Nc1nc(-c2nc3ccccc3[nH]2)cs1	0.263
CC1(C)CC(=O)C2=C(C1)OC1=C(C2)C(=O)CC(C)(C)C1	-0.305
COCc1nc2ccccc2n1Cc1ccccc1Br	-0.624
C=CCOc1ccc(CNn2cn[nH]c2=S)cc1	-0.0745
FC(F)(F)c1cccc(NC(=S)NCC2COc3ccccc3O2)c1 (centres undefined)	-0.0718
O=C(C1CCCN(S(=O)(=O)c2cnc[nH]2)C1)N1CC(=O)N(CCc2ccccc2)C(=O)C1 (centres undefined)	-0.371
N/C(=N\OC(=O)COc1ccc2ccccc2c1)c1cccnc1	-0.592
CCn1nc(C)c(C(=O)Nc2cc(Oc3ccc(Cl)cc3)cc([N+](=O)[O-])c2)c1C	-0.261
Oc1ccc(Nc2ncnc3scc(-c4ccccc4)c23)cc1	-0.239
COC(=O)C1=C(NC(=O)C2CCCCC2)CCS1	0.125
COc1cccc(NC(=O)N2CCN(c3ccc(C(F)(F)F)cn3)CC2)c1	-0.587
Cc1occc1C(=O)N1CCN(c2ncccn2)CC1	-0.105
Cc1cc(C)n(-c2cc(C(C)(C)C)nc3c(-c4ccc(Cl)cc4)cnn23)n1	0.19
CCCOc1ccc(OCCSc2nnc(N)s2)cc1	-0.509
Cc1ccc(S(=O)(=O)N2CC3CCCN3c3ccc(C(F)(F)F)cc32)cc1 (centres undefined)	-0.64

Structure (SMILES)	z-score
O=C(Nc1ccc2c(c1)OCO2)c1ccc2c(c1)OCO2	-0.329
CCC(CC)NC(=O)/C=C/c1cccc([N+](=O)[O-])c1	-0.231
COc1ccc(C2/C(=C(/O)c3ccc(Cl)cc3)C(=O)C(=O)N2CCN2CCOCC2)c(OC)c1 (centres undefined)	-0.534
CCOC(=O)Cc1c(Sc2ccccc2)c2ccccc2n1C	-0.171
Cc1nc(P(=O)(c2ccccc2)c2ccccc2)c(N2CCOCC2)o1	-0.389
Cc1cc(=O)[nH]c(SCc2cccc(Br)c2)n1	-2.81
O=C(c1cccs1)N1CCN(Cc2cccc([N+](=O)[O-])c2)CC1	-0.213
Cc1c(Cl)cccc1NC(=O)CN1CCC(C(O)(c2ccccc2)c2ccccc2)CC1	-0.0804
O=C(Nc1cccc(-c2cn3ccsc3n2)c1)c1ccccc1	-0.241
CCOC(=O)c1c(C)[nH]c(C(=O)COC(=O)CN2C(=O)C3CCCCC3C2=O)c1C (centres undefined)	-0.264
COC(=O)c1ccccc1N(C)S(C)(=O)=O	0.996
COC(=O)/C=C(\C)NC(=O)c1ccc(F)cc1	-0.317
COc1cccc(N2CCN(C(=O)Nc3ccc4c(c3)NC(=O)CO4)CC2)c1	-0.176
COc1cc(/C=N/NC(=O)COc2ccccc2C)ccc1OC(=O)c1cccs1	0.143
COCCOC(=O)c1cc(C(=O)c2cc(F)ccc2O)coc1=N	0.0298
CCOC(=O)c1ccc(Cn2cnc3ccccc3c2=O)cc1	-0.373
CCOC(=O)c1ccc(S(=O)(=O)n2c(CN3CCCCC3)nc3ccccc32)cc1	0.0659
CCOC(=O)CCCCC(=O)c1[nH]c(=O)[nH]c1CSc1nc2ccccc2[nH]1	-0.114
O=C(OCC(=O)N1CCN(C(=O)c2ccco2)CC1)c1cn(-c2ccccc2)nc1-c1ccccc1	-0.35
O=C(NCc1ccc2c(c1)OCO2)c1cc(-c2ccc(Cl)cc2Cl)on1	-0.885
CCOC(=O)C1CCN(S(=O)(=O)C(F)(F)c2nc3ccccc3s2)CC1	-0.0185

Reference: PubChem BioAssay AID488969 (Vanderbilt High Throughput Screening Facility, 2010)
